# The full ranking holds about 81,000 sequences; the median of “one-hybrid fitness for binding parS DNA” is about -0.17, and the highest 2% start at about 0.51. The list shows a part of the results.
# B1: Caulobacter ParB omega fusion; a variant is named by its letters at X, in order, B8GW30 (parent)
# chain: MESVVVGEPGMSEGRRGLGRGLSALLGEVDAAPAQAPGEQLGGSREAPIEILQRNPDQPRRTFREEDLEDLSNSIREKGVLQPILVRPSPDTAGEYQIVAGERAWRAAQRAGLKTVPIMVRELDDLAVLEIGIIENVQRADLNVLEEALSYKVLMEKFERTQENIAQTIGKSXSHVANXMRLLXLPDEVQSYLVSGELTAXHARAIAAAADPVALAKQIIEGGLSVRETEALARKAPNLSAGKSKGGRPPRVKDTDTQALESDLSSVLGLDVSIDHRGSTGTLTITYATLEQLDDLCNRLTRGI
# Variants of: B1
# Assay: one-hybrid fitness for binding parS DNA (scaled: cognate 1, non-cognate 0); higher = stronger binding
# Settings: with parS DNA site
# Procedure, shortened: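 Bacterial one-hybrid selection in E. coli USO rpoZ- hisB- pyrF- with a HIS3 reporter carrying the site 19 bp from the promoter, screening Caulobacter ParB libraries with four specificity codons randomised (NNS). Cells grew 48 hours at 37°C on M9-minus-histidine plus 0.1 mM IPTG and 5 mM 3-AT. Plasmids before and after selection were Illumina-sequenced, three replicate libraries pooled, and variants under 10 reads dropped. Fitness is the log change in variant-to-wild-type read ratio, rescaled to cognate 1, non-cognate 0.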
row,Variant,one-hybrid fitness for binding parS DNA
1,GTMC,≤ 0.2
2,QEVD,≤ 0.2
3,FCFS,≤ 0.2
4,TQDG,≤ 0.2
5,HVPE,≤ 0.2
6,KVHT,≤ 0.2
7,LFER,≤ 0.2
8,REVG,≤ 0.2
9,DAND,≤ 0.2
10,ACRV,≤ 0.2
11,TFHQ,≤ 0.2
12,GWIP,≤ 0.2
13,CKAR,≤ 0.2
14,YCKT,≤ 0.2
15,GAQC,≤ 0.2
16,GLTF,≤ 0.2
17,RICW,≤ 0.2
18,RHMR,≤ 0.2
19,YPWT,≤ 0.2
20,RMGG,0.993
21,KLLL,≤ 0.2
22,MQIT,0.223
23,EEKR,≤ 0.2
24,RVVC,0.914

row,Variant,one-hybrid fitness for binding parS DNA
1,TKRM,≤ 0.2
2,RIPK,≤ 0.2
3,QDAY,≤ 0.2
4,SFHS,≤ 0.2
5,RSKA,0.716
6,VRGS,≤ 0.2
7,QNYG,≤ 0.2
8,LIIH,≤ 0.2
9,CNPG,≤ 0.2
10,PPKT,≤ 0.2
11,PHPT,≤ 0.2
12,GPWR,≤ 0.2
13,DSLV,≤ 0.2
14,DKSS,≤ 0.2
15,GHPD,≤ 0.2
16,KRQI,≤ 0.2
17,FTKS,≤ 0.2
18,DDWY,≤ 0.2
19,RQRS,0.918
20,RIYM,0.377
21,NWPF,≤ 0.2
22,NLTL,≤ 0.2
23,VFHC,≤ 0.2
24,ASLT,≤ 0.2

row,Variant,one-hybrid fitness for binding parS DNA
1,RWEE,≤ 0.2
2,IANI,≤ 0.2
3,EHGS,≤ 0.2
4,AAFV,≤ 0.2
5,ESTR,≤ 0.2
6,FSTV,≤ 0.2
7,LAPN,≤ 0.2
8,ENAL,≤ 0.2
9,MQLS,≤ 0.2
10,NVSE,≤ 0.2
11,YQTG,≤ 0.2
12,LSIS,≤ 0.2
13,WKIM,≤ 0.2
14,AGFA,≤ 0.2
15,YNMT,≤ 0.2
16,WISV,≤ 0.2
17,RMHY,0.465
18,DNPF,≤ 0.2
19,TQKL,≤ 0.2
20,RQRL,≤ 0.2
21,QQQA,≤ 0.2
22,TMSE,≤ 0.2
23,KRFV,≤ 0.2
24,NVNV,≤ 0.2

row,Variant,one-hybrid fitness for binding parS DNA
1,APAQ,≤ 0.2
2,HWTT,≤ 0.2
3,WACY,≤ 0.2
4,CHFT,≤ 0.2
5,LHES,≤ 0.2
6,WRMS,≤ 0.2
7,GNPS,≤ 0.2
8,LYSV,≤ 0.2
9,SYAV,≤ 0.2
10,PVNC,≤ 0.2
11,QYFG,0.2
12,RPHC,≤ 0.2
13,NFHR,≤ 0.2
14,VCLT,≤ 0.2
15,FCHG,≤ 0.2
16,ISWR,≤ 0.2
17,KLDM,≤ 0.2
18,RIDP,≤ 0.2
19,PAER,≤ 0.2
20,TIKI,≤ 0.2
21,IPHQ,≤ 0.2
22,DSDM,≤ 0.2
23,RHIP,≤ 0.2
24,WKNG,≤ 0.2

row,Variant,one-hybrid fitness for binding parS DNA
1,TDAS,≤ 0.2
2,YDIS,≤ 0.2
3,LKRL,≤ 0.2
4,FVTL,≤ 0.2
5,GPEP,≤ 0.2
6,CCRR,≤ 0.2
7,RSVL,≤ 0.2
8,QIQK,≤ 0.2
9,HYMT,≤ 0.2
10,RLVH,0.223
11,RNNS,0.969
12,WPTS,≤ 0.2
13,GQYE,≤ 0.2
14,DYER,≤ 0.2
15,IGEW,≤ 0.2
16,INRN,≤ 0.2
17,CLQP,≤ 0.2
18,TYYT,≤ 0.2
19,LAWH,≤ 0.2
20,ESAK,≤ 0.2
21,ESHG,≤ 0.2
22,RLGK,≤ 0.2
23,TNNI,≤ 0.2
24,FKID,≤ 0.2

row,Variant,one-hybrid fitness for binding parS DNA
1,QFCR,≤ 0.2
2,CRIS,≤ 0.2
3,DIYT,≤ 0.2
4,SNPV,≤ 0.2
5,SMSF,≤ 0.2
6,CRYA,≤ 0.2
7,PELC,≤ 0.2
8,RQAR,≤ 0.2
9,ALHK,≤ 0.2
10,VWSY,≤ 0.2
11,PDTA,≤ 0.2
12,TLLT,≤ 0.2
13,GSWK,≤ 0.2
14,FPMN,≤ 0.2
15,AIDM,≤ 0.2
16,DRAS,≤ 0.2
17,NLCT,≤ 0.2
18,LHWH,≤ 0.2
19,NNHN,≤ 0.2
20,RRDY,0.289
21,TWFG,≤ 0.2
22,ATCI,≤ 0.2
23,QQVC,≤ 0.2
24,ACNF,≤ 0.2

row,Variant,one-hybrid fitness for binding parS DNA
1,SSCY,≤ 0.2
2,QQAG,≤ 0.2
3,ELES,≤ 0.2
4,LSCK,≤ 0.2
5,NAEH,≤ 0.2
6,IPHR,≤ 0.2
7,RCDN,0.376
8,RYDK,≤ 0.2
9,KLHR,≤ 0.2
10,YYGG,≤ 0.2
11,SKND,≤ 0.2
12,MATS,≤ 0.2
13,YVIP,0.312
14,MFHG,≤ 0.2
15,EYGS,≤ 0.2
16,QEYD,≤ 0.2
17,DAVD,≤ 0.2
18,TYYG,≤ 0.2
19,PMAY,≤ 0.2
20,HSAR,≤ 0.2
21,IMVQ,≤ 0.2
22,TEGC,≤ 0.2
23,PPGP,≤ 0.2
24,QMAF,≤ 0.2

row,Variant,one-hybrid fitness for binding parS DNA
1,TQGP,≤ 0.2
2,RFRS,0.954
3,PQNV,≤ 0.2
4,RDHL,≤ 0.2
5,DACY,≤ 0.2
6,SRLR,≤ 0.2
7,PHCG,≤ 0.2
8,PAEL,≤ 0.2
9,HVVK,≤ 0.2
10,SFHL,≤ 0.2
11,MAWS,≤ 0.2
12,FYII,≤ 0.2
13,LQRI,≤ 0.2
14,PKRR,≤ 0.2
15,EMLT,≤ 0.2
16,MRSM,≤ 0.2
17,KYAL,≤ 0.2
18,DVHT,≤ 0.2
19,SMAF,≤ 0.2
20,LKHA,≤ 0.2
21,SDVF,≤ 0.2
22,RIRL,≤ 0.2
23,VAYI,≤ 0.2
24,RTTE,≤ 0.2

row,Variant,one-hybrid fitness for binding parS DNA
1,GSHM,≤ 0.2
2,QVIM,≤ 0.2
3,RFHR,≤ 0.2
4,PSWV,≤ 0.2
5,KSQG,≤ 0.2
6,DDQR,≤ 0.2
7,IDCL,≤ 0.2
8,DVPR,≤ 0.2
9,TYHG,≤ 0.2
10,PLPI,≤ 0.2
11,PMHQ,≤ 0.2
12,ANTA,≤ 0.2
13,HTWT,≤ 0.2
14,AAGR,≤ 0.2
15,EPAF,≤ 0.2
16,GVEF,≤ 0.2
17,MMVC,≤ 0.2
18,NAVW,≤ 0.2
19,QRMS,≤ 0.2
20,PAVF,≤ 0.2
21,AIRW,≤ 0.2
22,TGPC,≤ 0.2
23,NKRT,≤ 0.2
24,SITP,≤ 0.2

row,Variant,one-hybrid fitness for binding parS DNA
1,EHMG,≤ 0.2
2,SPLL,≤ 0.2
3,PLAC,≤ 0.2
4,LSGK,≤ 0.2
5,RCRK,≤ 0.2
6,WDCV,≤ 0.2
7,TGRD,≤ 0.2
8,NAEL,≤ 0.2
9,IYRT,≤ 0.2
10,LIRE,≤ 0.2
11,SSLS,≤ 0.2
12,EHGG,≤ 0.2
13,LMIE,≤ 0.2
14,KDYS,≤ 0.2
15,PTQM,≤ 0.2
16,RIQS,0.99
17,QRLI,≤ 0.2
18,DSAI,≤ 0.2
19,AMLL,≤ 0.2
20,EHPD,≤ 0.2
21,CSSK,≤ 0.2
22,MCDC,≤ 0.2
23,RMRP,≤ 0.2
24,QQNV,≤ 0.2

row,Variant,one-hybrid fitness for binding parS DNA
1,VCAS,≤ 0.2
2,DRLH,0.254
3,PGVL,≤ 0.2
4,DLAS,≤ 0.2
5,QINI,≤ 0.2
6,QVHL,≤ 0.2
7,TAGE,≤ 0.2
8,NGNG,≤ 0.2
9,THDS,≤ 0.2
10,CYRH,≤ 0.2
11,RRNC,0.615
12,HLSR,≤ 0.2
13,RDLL,≤ 0.2
14,GRSY,≤ 0.2
15,QCRF,≤ 0.2
16,LSND,≤ 0.2
17,GFAL,≤ 0.2
18,DKGD,≤ 0.2
19,GRPT,≤ 0.2
20,YRPD,≤ 0.2
21,TFHV,≤ 0.2
22,AERV,≤ 0.2
23,CPPM,≤ 0.2
24,ALYI,≤ 0.2

row,Variant,one-hybrid fitness for binding parS DNA
1,EHVG,≤ 0.2
2,GIIR,≤ 0.2
3,TRHK,≤ 0.2
4,VFKQ,≤ 0.2
5,RKFA,0.549
6,WAAT,≤ 0.2
7,TVKS,≤ 0.2
8,CANQ,≤ 0.2
9,YTHW,≤ 0.2
10,VPFH,≤ 0.2
11,SYKY,≤ 0.2
12,EPNS,≤ 0.2
13,ITTP,≤ 0.2
14,NKSG,≤ 0.2
15,KDSV,≤ 0.2
16,FVIG,≤ 0.2
17,VWGG,≤ 0.2
18,WTVS,≤ 0.2
19,EYRD,≤ 0.2
20,LETI,≤ 0.2
21,MVVR,≤ 0.2
22,MPCL,≤ 0.2
23,IVCD,≤ 0.2
24,RNRV,≤ 0.2

row,Variant,one-hybrid fitness for binding parS DNA
1,NRSL,≤ 0.2
2,GVKC,≤ 0.2
3,ESYN,≤ 0.2
4,ESTK,≤ 0.2
5,IWVC,≤ 0.2
6,NCVF,≤ 0.2
7,WMNS,≤ 0.2
8,HAGH,≤ 0.2
9,QGYF,≤ 0.2
10,LNQS,≤ 0.2
11,MGEC,≤ 0.2
12,TRYW,≤ 0.2
13,VNVH,≤ 0.2
14,ILKR,≤ 0.2
15,ALTN,≤ 0.2
16,IIER,≤ 0.2
17,RMEK,≤ 0.2
18,QAWM,≤ 0.2

# From a collection of fitness landscapes (doi:10.1016/j.celrep.2020.107928)
